Measured values reported in the supplement of paper PMC11166567.
This is one part of the list.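 The calls were made as follows: active = permutation test q below 0.05 after Benjamini-Hochberg correction; inactive = q of 0.05 or more.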

Experiments:
A549 = test: mean average precision of replicate retrieval against DMSO controls (Cell Painting phenotypic activity) (fraction (0-1)); higher = stronger, more reproducible morphological phenotype distinct from DMSO; extreme values may be limits of the assay; conditions: 5 µM
U2OS = test: as above; conditions: 5 µM
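Also: cosine similarity of well-level aggregated Cell Painting profiles ranks each compound's replicate wells against DMSO wells, four replicate plates, significance from 100,000 rank shuffles.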

Row | Compound | mean average precision (A549; 24 h) | mean average precision (A549; 48 h) | mean average precision (U2OS; 24 h) | mean average precision (U2OS; 48 h)
1 | CC1=CC(=O)c2ccccc2C1=O | active: 0.642 | active: 1 | active: 1 | active: 1
2 | Cc1oncc1C(=O)Nc1ccc(C(F)(F)F)cc1 | active: 0.578 | active: 1 | inactive: 0.291 | inactive: 0.195
3 | CCOC(=O)[C@H]1O[C@@H]1C(=O)N[C@@H](CC(C)C)C(=O)NCCC(C)C | active: 1 | active: 1 | active: 1 | active: 1
4 | Cc1ccc(-c2nn(C(C)(C)C)c3ncnc(N)c23)cc1 | active: 1 | active: 1 | active: 1 | active: 1
5 | COC1(C2=NCCN2)COc2ccccc2O1 (stereo unspecified) | inactive: 0.14 | active: 0.89 | active: 0.408 | inactive: 0.147
6 | NC(N)=NC(=O)c1nc(Cl)c(N)nc1N | active: 0.979 | active: 1 | active: 0.428 | active: 0.431
7 | COC(=O)C1=C(C)NC(C)=C(C(=O)OC(C)(C)CN(C)CCC(c2ccccc2)c2ccccc2)C1c1cccc([N+](=O)[O-])c1 (stereo unspecified) | active: 0.537 | active: 0.938 | active: 0.8 | active: 0.755
8 | CC(O)C(CO)NC(=O)C1CSSCC(NC(=O)C(N)Cc2ccccc2)C(=O)NC(Cc2ccccc2)C(=O)NC(Cc2c[nH]c3ccccc23)C(=O)NC(CCCCN)C(=O)NC(C(C)O)C(=O)N1 (stereo unspecified) | inactive: 0.187 | inactive: 0.212 | active: 0.336 | inactive: 0.132
9 | CCCCCCCCCCCCCCCCOc1nc2ccc(C)cc2c(=O)o1 | inactive: 0.263 | active: 0.322 | inactive: 0.0875 | inactive: 0.0714
10 | CCCCC[C@H](O)/C=C/[C@@H]1[C@H]2C/C(=C/CCCC(=O)O)O[C@H]2C[C@H]1O | inactive: 0.175 | active: 0.425 | active: 0.581 | inactive: 0.0808
11 | O=C(O)c1cccnc1Nc1cccc(C(F)(F)F)c1 | active: 0.437 | active: 0.67 | inactive: 0.263 | inactive: 0.0737
12 | CC1(C)C(=O)NC2=C1C(=O)C(=O)c1ccccc12 | active: 0.343 | active: 1 | active: 1 | active: 1
13 | O=C(Nc1nc2cccc(-c3ccc(CN4CCS(=O)(=O)CC4)cc3)n2n1)C1CC1 | active: 1 | active: 1 | active: 0.798 | active: 0.938
14 | CC(C)C(=O)c1ccc(O)c(O)c1 | active: 0.728 | active: 1 | active: 0.475 | inactive: 0.235
15 | CC[C@H](C)[C@@H]1NC(=O)[C@H](Cc2ccc(O)cc2)NC(=O)[C@@H](N)CSSC[C@@H](C(=O)N2CCC[C@H]2C(=O)N[C@@H](CC(C)C)C(=O)NCC(N)=O)NC(=O)[C@H](CC(N)=O)NC(=O)[C@H](CCC(N)=O)NC1=O | inactive: 0.103 | inactive: 0.267 | inactive: 0.131 | inactive: 0.131
16 | O=C(NCc1cccc(O)c1)Nc1nc(-c2ccncc2)cs1 | active: 1 | active: 1 | active: 1 | active: 1
17 | COC(=O)C1=C(C#N)NC(C)=C(C(=O)OC(C)C)C1c1cccc([N+](=O)[O-])c1 (stereo unspecified) | active: 0.561 | active: 0.828 | active: 0.437 | inactive: 0.297
18 | Cc1ccc(C(=O)Nc2ccc(CN3CCN(C)CC3)c(C(F)(F)F)c2)cc1C#Cc1cnc2cccnn12 | active: 1 | active: 1 | active: 1 | active: 1
19 | Cc1cc(N2CCOCC2)cc2[nH]c(-c3c(NC[C@@H](O)c4cccc(Cl)c4)cc[nH]c3=O)nc12 | active: 1 | active: 1 | active: 1 | active: 1
20 | Clc1ccc(COC(Cn2ccnc2)c2ccc(Cl)cc2Cl)c(Cl)c1 (stereo unspecified) | active: 0.481 | active: 0.794 | active: 0.847 | active: 0.702
21 | Cn1c(=O)c2c(ncn2CC(O)CO)n(C)c1=O (stereo unspecified) | active: 0.324 | inactive: 0.279 | inactive: 0.14 | inactive: 0.127
22 | C=C(NC(=O)C(=C)NC(=O)c1csc(C2=N[C@@H]3c4csc(n4)[C@H]4NC(=O)c5csc(n5)[C@H]([C@](C)(O)[C@@H](C)O)NC(=O)[C@H]5CSC(=N5)/C(=C/C)NC(=O)[C@H]([C@@H](C)O)NC(=O)c5csc(n5)[C@]3(CC2)NC(=O)[C@H](C)NC(=O)C(=C)NC(=O)[C@H](C)NC(=O)[C@H]([C@@H](C)CC)N[C@@H]2C=Cc3c([C@H](C)O)cc(nc3[C@H]2O)C(=O)O[C@@H]4C)n1)C(N)=O | active: 1 | active: 1 | active: 1 | active: 1
23 | Cc1csc(-c2nnc(Nc3ccc(Oc4ncccc4-c4ccnc(N)n4)cc3)c3ccccc23)c1 | active: 1 | active: 1 | active: 1 | active: 1
24 | C[C@H](N)C(=O)NCC(=O)N[C@H]1CSSC[C@@H](C(=O)O)NC(=O)[C@H](CO)NC(=O)[C@H]([C@@H](C)O)NC(=O)[C@H](Cc2ccccc2)NC(=O)[C@H]([C@@H](C)O)NC(=O)[C@H](CCCCN)NC(=O)[C@H](Cc2c[nH]c3ccccc23)NC(=O)[C@H](Cc2ccccc2)NC(=O)[C@H](Cc2ccccc2)NC(=O)[C@H](CC(N)=O)NC(=O)[C@H](CCCCN)NC1=O | active: 0.436 | active: 0.722 | active: 0.624 | active: 0.356
25 | CCCCC1C(=O)N(c2ccccc2)N(c2ccccc2)C1=O | active: 0.334 | active: 0.707 | inactive: 0.305 | inactive: 0.135

Row | Compound | mean average precision (A549; 24 h) | mean average precision (A549; 48 h) | mean average precision (U2OS; 24 h) | mean average precision (U2OS; 48 h)
26 | Cc1ccc(-n2sc(=O)n(Cc3ccc(F)cc3)c2=O)cc1 | inactive: 0.153 | active: 0.451 | active: 0.38 | active: 1
27 | Cn1cc(-c2ccc3nnc(Sc4ccc5ncccc5c4)n3n2)cn1 | inactive: 0.265 | active: 0.624 | inactive: 0.198 | inactive: 0.155
28 | CCCCCCOc1nsnc1C1=CCCN(C)C1 | active: 0.365 | active: 0.298 | inactive: 0.27 | inactive: 0.243
29 | O=C(NCCS(=O)(=O)c1ccc(C(F)(F)F)cn1)c1ccc(Cl)cc1 | active: 0.428 | active: 0.452 | active: 0.314 | active: 0.332
30 | Cc1c(-c2ccnn2C)cc(C(=O)NCc2ccc(S(C)(=O)=O)cn2)c(=O)n1-c1cccc(C(F)(F)F)c1 | active: 0.521 | active: 0.731 | active: 0.342 | inactive: 0.164
31 | O=C1NC(=O)C2(CCOc3ccc(F)cc32)N1 (stereo unspecified) | active: 0.36 | active: 0.55 | inactive: 0.117 | inactive: 0.0837
32 | CCCCCC[C@@H](CCC)C(=O)O | active: 0.332 | active: 0.701 | inactive: 0.147 | inactive: 0.181
33 | N#CC[C@H](C1CCCC1)n1cc(-c2ncnc3[nH]ccc23)cn1 | active: 0.605 | active: 1 | active: 1 | active: 0.544
34 | Cc1cc(-c2ncc(CC(=O)Nc3ccc(-c4cnccn4)cn3)cc2C)ccn1 | active: 0.712 | active: 1 | inactive: 0.142 | inactive: 0.0907
35 | N=C(N)N | active: 0.337 | active: 0.855 | inactive: 0.115 | inactive: 0.116
36 | COC1=C2C[C@@H](C)C[C@H](OC)[C@H](O)[C@@H](C)/C=C(\C)[C@H](OC(N)=O)[C@@H](OC)/C=C/C=C(\C)C(=O)NC(=CC1=O)C2=O | active: 0.62 | active: 1 | active: 1 | active: 1
37 | CC#CC(=O)N1CCC[C@H]1c1nc(-c2ccc(C(=O)Nc3ccccn3)cc2)c2c(N)nccn12 | active: 0.373 | active: 0.772 | active: 0.441 | active: 0.392
38 | Nc1ncnc2c1c(-c1cccc(OCc3ccccc3)c1)cn2C1CC(CN2CCC2)C1 (stereo unspecified) | active: 1 | active: 1 | active: 1 | active: 1
39 | Cn1cnc([N+](=O)[O-])c1Sc1ncnc2nc[nH]c12 | active: 0.447 | active: 0.958 | active: 0.318 | inactive: 0.219
40 | OC(CCN1CCCCC1)(c1ccccc1)C1CCCCC1 (stereo unspecified) | active: 0.39 | active: 0.681 | inactive: 0.114 | inactive: 0.0897
41 | CC1(C)C(=O)N=C2c3ccccc3C(=O)C(=O)C21 (stereo unspecified) | active: 0.752 | active: 0.863 | active: 1 | active: 1
42 | CCC(C)(C)C(=O)O[C@H]1C[C@@H](C)C=C2C=C[C@H](C)[C@H](CC[C@@H]3C[C@@H](O)CC(=O)O3)[C@H]21 | inactive: 0.271 | active: 0.861 | active: 1 | active: 1
43 | CC(C)c1ccc2oc3nc(N)c(C(=O)O)cc3c(=O)c2c1 | inactive: 0.117 | active: 0.33 | active: 0.48 | inactive: 0.223
44 | CN[C@@H]1C[C@H]2O[C@@](C)([C@@H]1OC)n1c3ccccc3c3c4c(c5c6ccccc6n2c5c31)C(=O)N[C@H]4O | active: 1 | active: 1 | active: 1 | active: 1
45 | Cc1cc(C)cc(C(=O)N(C)[C@H](Cc2ccc(-c3ccccc3)cc2)C(=O)N[C@@H](Cc2c[nH]c3ccccc23)C(=O)O)c1 | inactive: 0.127 | inactive: 0.134 | inactive: 0.238 | inactive: 0.063
46 | Nc1cc(F)ccc1NC(=O)/C=C/c1cnn(C/C=C/c2ccccc2)c1 | active: 0.938 | active: 1 | active: 1 | active: 1
47 | O=C1C(Cl)=C(NCCN2CCOCC2)C(=O)c2ncccc21 | active: 0.534 | active: 1 | active: 1 | active: 1
48 | CN1CCN(c2nc(C3=C(c4c[nH]c5ccccc45)C(=O)NC3=O)c3ccccc3n2)CC1 | active: 1 | active: 1 | active: 1 | active: 1
49 | Cc1noc(-c2ccc(CSCCC(=O)O)cc2)c1NC(=O)OC(C)c1ccccc1Cl (stereo unspecified) | active: 1 | active: 1 | active: 0.51 | active: 0.561
